Source: US12370143B2, “Compound or salt thereof and lipid particles” (FUJIFILM Corporation, priority 2018, dated 2025)
At least one compound was matched to its structure with a doubt left.

How the values were obtained:
Assay type in all cases: physicochemical
[1] = Encapsulation rate of siRNA in nucleic acid lipid particles (Luc2-siRNA); details: compound/DSPC/cholesterol/DMG-PEG2000 50/10/38.5/1.5
Protocol: (§1) The compounds described in Table 2, L-α-distearoylphosphatidylcholine (trade name: COATSOME® MC-8080; NOF corporation), cholesterol (trade name: Choesterol HP; NIPPON FINE CHEMICAL CO., LTD.), and 1,2-dimyristoyl-rac-glycero-3-(methylpolyoxyethylene 2000) (hereinafter, called DMG-PEG2000) (trade name: SUNBRIGHT® GM-020; NOF corporation) were dissolved in ethanol at a molar ratio of 50/10/38.5/1.5 such that the total lipid concentration became 20 mmol/L, thereby obtaining an oil phase.
(§2) An aqueous nucleic acid solution obtained by dissolving 5 mg of Luc2-siRNA having the sequence described in Biomacromolecules (2013) 14, p. 3905 in 1 mL of sterile water was diluted with 10 mmol/L acetate buffer having a pH 4 such that the nucleic acid concentration became 19.7 μmol/L, thereby obtaining a water phase. Then, the water phase and the oil phase were mixed together by a micromixer (see JP5288254B) using a syringe pump such that the volume ratio of water phase:oil phase became 3:1 (final ratio of siRNA/lipid=339 (mol/mol)), and the mixed solution was diluted 2× with PBS, thereby obtaining a dispersion liquid of nucleic acid lipid particles. The dispersion liquid was dialyzed (Slide-A-Lyzer G2, MWCO: 10 kD, Thermo Fisher Scientific) using a phosphate buffered saline such that ethanol was removed, thereby obtaining nucleic acid lipid particles.
(§3) A 3 mol/L aqueous sodium acetate solution (30 μL) and 9 μL of glycogen were added to 60 μL of the lipid particles retaining nucleic acids, and then 1.5 mL of ethanol was added thereto such that only the nucleic acids were precipitated while the lipid was dissolved. Then, the supernatant was removed by centrifugation. After the precipitates were air-dried for 15 minutes or longer, water was added thereto such that the precipitates were redissolved, and the concentration thereof was measured using Nanodrop NF1000 (Thermo Fisher Scientific), thereby quantifying the total nucleic acid concentration.
(§4) The nucleic acid concentration was quantified using a Quant-iT RiboGreen RNA Assay Kit (Thermo Fisher Scientific) according to the protocol. First, a 20×TE buffer included in the above kit was diluted with water, thereby obtaining a 1×TE buffer. TE represents Tris/EDTA (ethylenediaminetetraacetic acid). In order to quantify only the nucleic acid in the outer water phase, the dispersion liquid of lipid particles retaining nucleic acids was diluted 10,000× with the 1×TE buffer.
(§5) The 10,000× diluted dispersion liquid of lipid particles (100 μL) was put in a 96-well plate, then 100 μL of a RiboGreen reagent (reagent included in the Quanti-iT Ribogreen RNA Assay Kit described above) diluted 2000× with the 1×TE buffer was added to a sample, and fluorescence (excitation wavelength: 485 nm, fluorescence wavelength: 535 nm) was measured using a plate reader Infinit EF200 (TECAN), thereby quantifying the nucleic acid concentration in the outer water phase.
(§6) By using the total nucleic acid concentration obtained through the above steps and the quantified nucleic acid concentration in the outer water phase, the nucleic acid encapsulation rate of the nucleic acid lipid particles was calculated according to the following Equation. Nucleic acid encapsulation rate (%)=(total nucleic acid concentration−nucleic acid concentration in outer water phase)/total nucleic acid concentration×100 The results are shown in Table 2.

[2] = Particle size of nucleic acid lipid particles (Luc2-siRNA); details: compound/DSPC/cholesterol/DMG-PEG2000 50/10/38.5/1.5
Protocol: By using the dispersion liquid of lipid particles as it was, the particle size of the lipid particles was measured using a zeta potential/particle size measurement system ELS-Z2 (Otsuka Electronics Co., Ltd.).
as §1, §2
(§7) The particle size of the nucleic acid lipid particles was measured by the same method as that in <Preparation of lipid particles>.

[3] = Particle size of nucleic acid lipid particles (FVII-siRNA)
Protocol: as §1, §2, §7
(§8) The Factor VII (FVII) protein was measured according to the method described in Nature Biotechnology (2010) 28, 172-176. C57BL6/J mice were randomly grouped (n=3). A dispersion liquid of nucleic acid lipid particles was prepared by the same method as that in <Preparation of nucleic acid lipid particles>, except that FVII-siRNA having the sequence described in Molecular Therapy (2009) 17, p. 878 was used instead of Luc-siRNA. The dispersion liquid was administered to the caudal vein of the mice at a dosage of 0.1 mg/kg. For comparison, PBS at the same volume was administered to the caudal vein of the mice. Twenty four hours after the administration, blood was collected from the caudal vena cava, thereby obtaining plasma. The amount of FVII protein was quantified using the obtained plasma and a Biophen FVII assay kit (Aniara).

[4] = Nucleic acid encapsulation rate of nucleic acid lipid particles (FVII-siRNA)
Protocol: as §3, §4, §5, §6, §8

| Structure (SMILES) | Nucleic acid encapsulation rate [1] [%] | Particle size (nm) [2] [nm] | Particle size (nm) [3] [nm] | Nucleic acid encapsulation rate [4] [%] |
| --- | --- | --- | --- | --- |
| CCCCCCCC/C=C\CCCCCCCC(=O)OCC(COC(=O)CCCCCCC/C=C\CCCCCCCC)OC(=O)OCCN(CC)CCN(C)C [Example 34, 2-(((2-((2-(dimethylamino)ethyl)(ethyl)amino)ethoxy)carbonyl)oxy)propane-1,3-diyldioleate] | 84 | 74.6 | – | – |
| CCCCCCCC/C=C\CCCCCCCC(=O)OCCCCCCC(CCCCCCOC(=O)CCCCCCC/C=C\CCCCCCCC)OC(=O)OCCN(CC)CCN(C)C [Example 36, 7-(((2-((2-(dimethylamino)ethyl)(ethyl)amino)ethoxy)carbonyl)oxy)tridecane-1,13-diyldioleate] | 85 | 73.4 | – | – |
| CCCCCCCCC(CCCCCCCC)CC(=O)OCCCCCCC(CCCCCCOC(=O)CC(CCCCCCCC)CCCCCCCC)OC(=O)OCCN(CC)CCN(CC)CC [Example 65, 7-(((2-((2-(Diethylamino)ethyl)(ethyl)amino)ethoxy)carbonyl)oxy)tridecane-1,13-diylbis(3-octylundecanoate)] | 69 | 83.3 | 88.9 | 100 |
| CCCCCCCC(CCCCCCC)CC(=O)OCCCCCCC(CCCCCCOC(=O)CC(CCCCCCC)CCCCCCC)OC(=O)OCCN(CC)CCN(CC)CC [Example 70, 7-(((2-((2-(diethylamino)ethyl)(ethyl)amino)ethoxy)carbonyl)oxy)tridecane-1,13-diylbis(3-heptyldecanoate)] | 72 | 76.3 | 85.7 | 98 |
| CCCCCCCCC(CCCCCC)C(=O)OCCCCCC(CCCCCOC(=O)C(CCCCCC)CCCCCCCC)OC(=O)OCCN(CC)CCN(CC)CC (stereo not drawn) [Example 71, 6-(((2-((2-(Diethylamino)ethyl)(ethyl)amino)ethoxy)carbonyl)oxy)undecane-1,11-diylbis(2-hexyldecanoate)] | 77 | 68.5 | 80.1 | 92 |
| CCCCCCCCC(CCCCCC)C(=O)OCCCCC(CCCCOC(=O)C(CCCCCC)CCCCCCCC)OC(=O)OCCN(CC)CCN(CC)CC (stereo not drawn) [Example 73, 5-(((2-((2-(Diethylamino)ethyl)(ethyl)amino)ethoxy)carbonyl)oxy)nonane-1,9-diylbis(2-hexyldecanoate)] | 78 | 66.8 | 71.2 | 82 |
| CCCCCCCCC(CCCCCCCC)C(=O)OCCCCCCC(CCCCCCOC(=O)C(CCCCCCCC)CCCCCCCC)OC(=O)OCCN(CC)CCN(CC)CC [Example 74, 7-(((2-((2-(Diethylamino)ethyl)(ethyl)amino)ethoxy)carbonyl)oxy)tridecane-1,13-diylbis(2-octyldecanoate)] | 70 | 75.7 | 76.7 | 79 |
